The list shows a part of the results.

The test system of the assay is PfHDP1 homeodomain (GST-tagged). As to the kind of experiment: gcPBM binding intensity (ln(normalized median fluorescence intensity)); higher = stronger DNA binding. The essentials:
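Each value is the highest Masliner-normalised natural-log median intensity across replicate spots of either orientation of a probe. The probes were primer-extended double-stranded 36-bp intergenic genomic sequences on an Agilent 4 × 180k array, alongside negative controls, exposed for 1 h to GST-tagged P. falciparum DNA-binding domains expressed in E. coli. Bound protein was picked up with Alexa488 anti-GST antibody and scanned at 488 nm.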
Take “AAAAAAAAAAAACACACACACACATACAAAATATAT [CACACA_site1448]”: the “gcPBM binding intensity (ln)” value was determined as 6.76. “AATTATACGAAATAAAACTTAATAGACAAAAAATTA [CACACA_negctrl_site1384]”: the “gcPBM binding intensity (ln)” value was 6.3. In the case of “GTAATTTAAATAACAAGTACTAATGTGGATAAGCAG [XGTACX_site1163]”, the “gcPBM binding intensity (ln)” value was 7.27.

As for “GAACAAAAGGAATGTTGTACATAAAAAATGAAAAAT [XGTACX_site3929]”, the “gcPBM binding intensity (ln)” value was 6.66. The result for “AAAAAAATTAAACACACACACACATATATATATATA [CACACA_site4718]” reads 9.13; that for “ATATATATGTATATGTGTACTTATATTTGTCATTTT [XGTACX_site1317]”, 6.25. For the sequence “TTTTTTTTTTATTTTGCACACTTCTAATTTAGTTGT [CACACA_site3429]”, the “gcPBM binding intensity (ln)” value came to 10.7.

Consider “AAAAAAGTAAAAAGTGCATGTAAAATATAAGTATCT [TGCATGCA_site55]”, for which the “gcPBM binding intensity (ln)” value is 7.29.

Regarding “GTTATTCTTAATTTTTGTACACATTTTTATATTATT [XGTACX_site7227]”, the “gcPBM binding intensity (ln)” value was found to be 7.53. With “TAAAGGCAAACAAACACACACACATATATACATATA [CACACA_site2123]”, the “gcPBM binding intensity (ln)” value is 6.69. Consider “AAAAATTAACAAAAGGTGCAAACAAATAGTGGTTTT [GTGCAC_site9998]”, for which the “gcPBM binding intensity (ln)” value worked out at 8.6. The result for “CCAATACTGTTTAAATGTACAAGTAGGAGGTTAATT [XGTACX_site7260]” reads 6.64; that for TCCTGCCTCTCTTTGGTGCGTTGTAACCCTCGAGGA, 6.6; that for “AAAATTTAATATAATGCACACATAAAAAAAAATTCA [CACACA_site8640]”, 9.79. With “TAAATTATTTATAAAGCACACAAGAAAAAATAAAAT [CACACA_site2132]”, the “gcPBM binding intensity (ln)” value was determined as 6.99. The result for “ATATTAATATACATATGTACATATATATATATATAT [XGTACX_site7425]” reads 9.18.

In the case of TAAAGTGTAAAGAAGGTGCTCATTATTTATTTTTTT, the “gcPBM binding intensity (ln)” value turned out to be 6.26. As for “TTTATATCGACTCTTCTTTATATAAGTTGTGATGTT [TGCATGCA_negctrl_site362]”, the “gcPBM binding intensity (ln)” value was 6.55. The result for “TTATACTTTTTTTCTTGGTGTAGAAAAAAAAGTTAG [CACACA_negctrl_site1207]” reads 6.29.

In the case of “ATATGATATATTTTATGTACATATAAAACATATATA [XGTACX_site4297]”, the “gcPBM binding intensity (ln)” value was found to be 6.25.

With “TTTATATTAGGTCTTGAACGATTTTCATCATTATTA [TGCATGCA_negctrl_site100]”, the “gcPBM binding intensity (ln)” value came to 6.04. On to “AAAAAAGAAACAAACACACATACATACAAACAAACA [CACACA_site142]”, for which the “gcPBM binding intensity (ln)” value worked out at 7. Regarding “AGTTTCCTTGAGAAAAGTACGTAATACTACATATAT [XGTACX_site818]”, the “gcPBM binding intensity (ln)” value is 6.16. With “AAATTGTAGAAGCGTATTTCTCGAACTGGATGAATA [CACACA_negctrl_site1373]”, the “gcPBM binding intensity (ln)” value amounted to 6.64. The result for “AATTAATGGAAACAAGTCAAATGATCTTTATGCATA [TGCATGCA_negctrl_site540]” reads 6.43. With “AATTCCTATAATGAGAGTACGCATTAGAACAGTAGG [XGTACX_site5721]” the figure was 6.4. The result for “TTGATAAAAAAAAAAAAATAAAAAAAAAATAAAAAA [XGTACX_negctrl_site480]” reads 5.86; that for “TTTAAAAGATAAAGACTGCACTTTAAGCACACAAAT [GTGCAC_site9752]”, 6.95; that for “AATAAATATATAAATACACACAAACATACAGATATA [CACACA_site6088]”, 7.03.

“GAGATTTATTTATGTGCACACTAGAACAATTGGATC [CACACA_site2090]”: the “gcPBM binding intensity (ln)” value was determined as 10.5.

“TTTTTTTTTTTTGTGCGTACATACCATTTTAATAAT [XGTACX_site2760]”: the “gcPBM binding intensity (ln)” value is 6.66. With “CTTTTTTCAAAACACACACACAAGAAAATATATATA [CACACA_site3109]”, the “gcPBM binding intensity (ln)” value amounted to 7.26. With “AAGACATTTTTTAAGGTGCTTTGGAAAAAGGAGTAT [GTGCAC_site9816]” the figure was 6.58. Take “TATTATATATCAAAATGTACATTAATTTGAGTAATT [XGTACX_site5434]”: the “gcPBM binding intensity (ln)” value is 6.37.

With “GATGTGATGTATTTGGTATTTTTCGATGTTGGTAGG [CACACA_negctrl_site355]”, the “gcPBM binding intensity (ln)” value came out at 6.82. With “TTTTTGCTATTCTATTATATATATAATATATTTTAC [CACACA_negctrl_site262]”, the “gcPBM binding intensity (ln)” value was 7.02.

Consider “TTACCTCTTTGAAATATACACACTAATCATATCAAC [CACACA_site8778]”, for which the “gcPBM binding intensity (ln)” value was 6.83.

On to “TGTTCAGTAGGGCACACACACAACAAAATAAAAAAA [CACACA_site378]”, for which the “gcPBM binding intensity (ln)” value was found to be 6.86. “TAAAAACGATTTTTTGCACACACATAATAAGCAGAA [CACACA_site3870]”: the “gcPBM binding intensity (ln)” value amounted to 10.2.

In the case of “AAAAATGATATGAGTTGTACATAAGTAAGAATTATT [XGTACX_site7089]”, the “gcPBM binding intensity (ln)” value amounted to 6.22. Turning to “GGACAAGTTAAACGCACACAAATATATACCCCCATA [CACACA_site4996]”, the “gcPBM binding intensity (ln)” value amounted to 7.91. The result for “TATAATAAAATATGTACACACATACACCCATATATA [CACACA_site4808]” reads 6.83; that for “ACAAGTAATTAAGAGTGTACATAACTATAAATCCAA [XGTACX_site5215]”, 6.38; that for “TGTATGTATGTATTATTTGTTATTTTAATTTTTTTG [TGCATGCA_negctrl_site256]”, 7.03.

In the case of “GATATGATGAGATTGATATTCATAAGAGGATTAATG [GTGCAC_negctrl_site515]”, the “gcPBM binding intensity (ln)” value was 6.24. The result for “ATTATAATTGCATATACACACAAAGGTTCATAACAA [CACACA_site7440]” reads 7.62; that for “ACATATATAAAATAATGTACATTTTTAAGAATGCGT [XGTACX_site7654]”, 6.5; that for “ATGAGTTACATGGGAAAAATATATATATATATATAT [CACACA_negctrl_site579]”, 9.38. The result for “TGATAAATATGGAGCACACACACATAAACATACATA [CACACA_site420]” reads 7.23. Turning to TTGTATCCTTAATGCATGCACCAAATAACAAAAGTA, the “gcPBM binding intensity (ln)” value was 9.31.

As for “TTTAAAAGATAAAACACACATACTAATAAAAAACAA [CACACA_site2556]”, the “gcPBM binding intensity (ln)” value was determined as 7.29.

As to “TTGTTGTATTATTTATGTACATATGTATATGTATAT [XGTACX_site1315]”, the “gcPBM binding intensity (ln)” value is 6.82. With “AAAAAAAAAAAAAAAAGGGGGGGAGGGATTGAAAAA [CACACA_negctrl_site193]” the figure was 7.97.

Regarding “ACAGTATTTCGAGATGGTACACATATATATATATAT [XGTACX_site6880]”, the “gcPBM binding intensity (ln)” value was 9.39.

For “AATGAGGATATATACACACATACATTAAAAAAATAT [CACACA_site1849]”, the “gcPBM binding intensity (ln)” value was determined as 6.67. Regarding “AAATAAAATAAAATAAAATAAAATAAAATAAAATAA [XGTACX_negctrl_site142]”, the “gcPBM binding intensity (ln)” value came to 6.37. With “TTATTTATGAGGGTGACACACAAAAGAGTGTTAAGA [CACACA_site277]”, the “gcPBM binding intensity (ln)” value came to 6.22. With “AAAAAAAAACACGCATGTACATAAAAATAATCATAC [XGTACX_site1086]” the figure was 6.87. With “TACTTATTTGATTGGGTGCATATATATAGTATGTAT [GTGCAC_site9845]” the figure was 9.2; with “AATAATAATTTAAAAAGTACATTCTAATAAACACGT [XGTACX_site1444]”, 6.62. As to “TATTTCAAATGTTATGTGCACATATTAATCCTACTT [GTGCAC_site9738]”, the “gcPBM binding intensity (ln)” value stood at 10.7. The result for “AATATCTGAAAATAAAGTACAAACATATTATAAATA [XGTACX_site5738]” reads 6.53; that for “TTTTTTTTTTTTTTTGGTACACATTTTGGTTAATGG [XGTACX_site5109]”, 6.48. With “AAAATTATGCAGTAGGTGCAATACCCTCGGCTTTTT [GTGCAC_site9556]”, the “gcPBM binding intensity (ln)” value was determined as 9.44. With “ATAAAAAGGTTTAAAAAAAAAAAAAAAAAAAAAAAA [CACACA_negctrl_site412]” the figure was 6; with “CTTGTGCTTTATAGGGTGCACATTTTGTTTTGGTAA [GTGCAC_site9899]”, 9.59; with “TGAACACATACATACACACACACAAAAAAAAAAAAA [CACACA_site392]”, 6.73. Regarding “TTATTAATTATATATAGTACACATTTCACAGATGGG [XGTACX_site2349]”, the “gcPBM binding intensity (ln)” value was 6.7.

Consider “GATGAAATATCATTACGTACACAATAGTTTGTATTT [XGTACX_site5143]”, for which the “gcPBM binding intensity (ln)” value came out at 6.36. The result for “AATGAATAAATAAACACACACACATATATATATATG [CACACA_site18]” reads 6.98; that for “ATTATTGCAATTTAATGTACATAATACAAATTTGCC [XGTACX_site2729]”, 9.65.

As to “TATACGTATACCTATACACACATATATATATATATA [CACACA_site1273]”, the “gcPBM binding intensity (ln)” value stood at 9.31. On to “TATATTCAAAAAAATTCATTTCTGATTTTTTTTTTT [CACACA_negctrl_site1085]”, for which the “gcPBM binding intensity (ln)” value is 6.09. The result for “AATAATAATAGAAACACACACACATTTTTAAGAATA [CACACA_site6692]” reads 6.79; that for “TGAAAAAAAAAATGCACACGCATACAGATAATATGT [CACACA_site4526]”, 8.98.

As for “TGAAGGTTTCAAAAACGTACAAAAAAAAATGTTAGT [XGTACX_site8803]”, the “gcPBM binding intensity (ln)” value turned out to be 6.87. As for “TTTAGAAATAAATACACACATACATTTTTGTATACA [CACACA_site718]”, the “gcPBM binding intensity (ln)” value stood at 6.32. The result for “TTTTTTTTTTATGGTACACACACGCGTATGGTTGCA [CACACA_site1876]” reads 6.43; that for “TAAAATAAAAATATAGTGCACAGATTTTGATATTTT [GTGCAC_site9696]”, 10.4; that for “CTTTGTGGTATAGATACACACTATATTAAGATGAAC [CACACA_site5215]”, 6.22. With “CACATTATGTATCATACACACAAATAGATATATAAC [CACACA_site6434]” the figure was 6.56; with “TATCTTAACAATTAGTGTACAGATAACCAATTAAAA [XGTACX_site3184]”, 6.09; with “AACATATAAAAATGTGCACACACACCCATATATATA [CACACA_site1525]”, 10.7. Take “ATAATAAATGATAGCACACATATGTACATAAATACA [CACACA_site4634]”: the “gcPBM binding intensity (ln)” value turned out to be 6.83. The result for “ATATTATATATTTGATGTACATTGAATGAGAGAGAA [XGTACX_site3324]” reads 7.34; that for “AAATCATGTTGAAGGGGTACAAAATATGTAATGTTG [XGTACX_site6222]”, 6.5; that for “TATATATATATATAATGTACAGAAAAAAAAAAAAAA [XGTACX_site6141]”, 8.74.

Turning to “TTAATCCTTTTTAAAAGTACACATATATATATATAT [XGTACX_site962]”, the “gcPBM binding intensity (ln)” value is 9.32.

Values taken from the supplement of paper PMC11417369.
